Results published in patent publication US20020110853A1 (IMMUNEX, published 2002).

Target: T1, human full length TWEAK, expressed on transfected CV-1 cells (human, UniProt O43508 1-249)
T1 construct: whole, on cells; also called TWEAK ligand
T1 sequence (looked up): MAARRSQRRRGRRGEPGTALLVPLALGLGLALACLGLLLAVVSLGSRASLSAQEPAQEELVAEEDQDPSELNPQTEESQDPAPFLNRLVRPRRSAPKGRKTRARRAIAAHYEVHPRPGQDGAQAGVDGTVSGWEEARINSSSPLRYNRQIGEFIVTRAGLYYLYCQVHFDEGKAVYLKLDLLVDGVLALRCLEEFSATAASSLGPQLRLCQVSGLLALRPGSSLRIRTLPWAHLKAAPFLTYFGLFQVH
Experiment: Scatchard analysis, 125I-TWEAKR-Fc on CV-1 cells transfected with human full length TWEAK mixed 1:30 with Raji cells, 4 degrees Celsius
Text: Free and bound probe was separated by microfuging the samples through a phalate oil mixture in plastic tubes. Supernatants and pellets were gamma-counted.

B1: human TWEAKR-Fc (TWEAKR extracellular domain fused to Fc portion from human IgG1) (Fc fusion)
chain: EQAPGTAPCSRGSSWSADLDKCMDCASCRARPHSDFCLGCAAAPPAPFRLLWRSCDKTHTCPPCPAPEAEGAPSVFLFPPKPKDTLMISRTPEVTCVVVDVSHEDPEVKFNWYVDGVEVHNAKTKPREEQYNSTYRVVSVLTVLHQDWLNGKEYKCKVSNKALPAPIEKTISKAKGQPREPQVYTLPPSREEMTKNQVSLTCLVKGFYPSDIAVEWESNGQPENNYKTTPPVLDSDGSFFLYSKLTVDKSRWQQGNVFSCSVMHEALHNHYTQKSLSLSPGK
modifications: 125-I labeled in the Scatchard assay
notes: the assays name only TWEAKR-Fc; also called huTWEAKR-Fc
Ka: ~4.5e+08 M⁻¹
